Laboratory results as given in paper PMC7005700.
Results are given in words; binding and its absence hold for the method and conditions named. Binding seen in cells or lysates may run through a third protein. Some binding calls cover weakened binding; strength is not graded here. Each block holds one substance with its values, some of them ahead of it.

Sequences of proteins named here, by UniProt entry; tags and fusion partners are left off. A change or cut given only in a name is not applied to a line headed by its entry. A line that says so, or that is headed by a name, gives the form on record, which may keep a tag or linker.
UniProt P22415: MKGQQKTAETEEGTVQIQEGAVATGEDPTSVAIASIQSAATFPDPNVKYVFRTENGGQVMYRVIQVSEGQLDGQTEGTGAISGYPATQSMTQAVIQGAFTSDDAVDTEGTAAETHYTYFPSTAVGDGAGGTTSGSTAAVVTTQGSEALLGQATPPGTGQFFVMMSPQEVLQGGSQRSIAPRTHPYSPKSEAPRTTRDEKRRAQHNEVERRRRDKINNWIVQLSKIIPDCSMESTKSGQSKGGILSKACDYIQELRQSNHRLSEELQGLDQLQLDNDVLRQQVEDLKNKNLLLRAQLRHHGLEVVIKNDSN
UniProt Q61069: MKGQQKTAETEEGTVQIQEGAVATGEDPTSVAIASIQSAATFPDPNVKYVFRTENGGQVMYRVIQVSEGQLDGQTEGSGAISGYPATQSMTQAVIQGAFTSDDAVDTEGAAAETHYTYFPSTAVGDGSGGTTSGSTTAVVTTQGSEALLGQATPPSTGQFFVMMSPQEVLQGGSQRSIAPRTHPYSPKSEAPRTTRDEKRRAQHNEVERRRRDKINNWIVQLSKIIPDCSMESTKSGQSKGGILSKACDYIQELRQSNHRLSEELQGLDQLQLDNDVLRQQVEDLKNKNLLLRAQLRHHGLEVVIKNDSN
UniProt Q15652: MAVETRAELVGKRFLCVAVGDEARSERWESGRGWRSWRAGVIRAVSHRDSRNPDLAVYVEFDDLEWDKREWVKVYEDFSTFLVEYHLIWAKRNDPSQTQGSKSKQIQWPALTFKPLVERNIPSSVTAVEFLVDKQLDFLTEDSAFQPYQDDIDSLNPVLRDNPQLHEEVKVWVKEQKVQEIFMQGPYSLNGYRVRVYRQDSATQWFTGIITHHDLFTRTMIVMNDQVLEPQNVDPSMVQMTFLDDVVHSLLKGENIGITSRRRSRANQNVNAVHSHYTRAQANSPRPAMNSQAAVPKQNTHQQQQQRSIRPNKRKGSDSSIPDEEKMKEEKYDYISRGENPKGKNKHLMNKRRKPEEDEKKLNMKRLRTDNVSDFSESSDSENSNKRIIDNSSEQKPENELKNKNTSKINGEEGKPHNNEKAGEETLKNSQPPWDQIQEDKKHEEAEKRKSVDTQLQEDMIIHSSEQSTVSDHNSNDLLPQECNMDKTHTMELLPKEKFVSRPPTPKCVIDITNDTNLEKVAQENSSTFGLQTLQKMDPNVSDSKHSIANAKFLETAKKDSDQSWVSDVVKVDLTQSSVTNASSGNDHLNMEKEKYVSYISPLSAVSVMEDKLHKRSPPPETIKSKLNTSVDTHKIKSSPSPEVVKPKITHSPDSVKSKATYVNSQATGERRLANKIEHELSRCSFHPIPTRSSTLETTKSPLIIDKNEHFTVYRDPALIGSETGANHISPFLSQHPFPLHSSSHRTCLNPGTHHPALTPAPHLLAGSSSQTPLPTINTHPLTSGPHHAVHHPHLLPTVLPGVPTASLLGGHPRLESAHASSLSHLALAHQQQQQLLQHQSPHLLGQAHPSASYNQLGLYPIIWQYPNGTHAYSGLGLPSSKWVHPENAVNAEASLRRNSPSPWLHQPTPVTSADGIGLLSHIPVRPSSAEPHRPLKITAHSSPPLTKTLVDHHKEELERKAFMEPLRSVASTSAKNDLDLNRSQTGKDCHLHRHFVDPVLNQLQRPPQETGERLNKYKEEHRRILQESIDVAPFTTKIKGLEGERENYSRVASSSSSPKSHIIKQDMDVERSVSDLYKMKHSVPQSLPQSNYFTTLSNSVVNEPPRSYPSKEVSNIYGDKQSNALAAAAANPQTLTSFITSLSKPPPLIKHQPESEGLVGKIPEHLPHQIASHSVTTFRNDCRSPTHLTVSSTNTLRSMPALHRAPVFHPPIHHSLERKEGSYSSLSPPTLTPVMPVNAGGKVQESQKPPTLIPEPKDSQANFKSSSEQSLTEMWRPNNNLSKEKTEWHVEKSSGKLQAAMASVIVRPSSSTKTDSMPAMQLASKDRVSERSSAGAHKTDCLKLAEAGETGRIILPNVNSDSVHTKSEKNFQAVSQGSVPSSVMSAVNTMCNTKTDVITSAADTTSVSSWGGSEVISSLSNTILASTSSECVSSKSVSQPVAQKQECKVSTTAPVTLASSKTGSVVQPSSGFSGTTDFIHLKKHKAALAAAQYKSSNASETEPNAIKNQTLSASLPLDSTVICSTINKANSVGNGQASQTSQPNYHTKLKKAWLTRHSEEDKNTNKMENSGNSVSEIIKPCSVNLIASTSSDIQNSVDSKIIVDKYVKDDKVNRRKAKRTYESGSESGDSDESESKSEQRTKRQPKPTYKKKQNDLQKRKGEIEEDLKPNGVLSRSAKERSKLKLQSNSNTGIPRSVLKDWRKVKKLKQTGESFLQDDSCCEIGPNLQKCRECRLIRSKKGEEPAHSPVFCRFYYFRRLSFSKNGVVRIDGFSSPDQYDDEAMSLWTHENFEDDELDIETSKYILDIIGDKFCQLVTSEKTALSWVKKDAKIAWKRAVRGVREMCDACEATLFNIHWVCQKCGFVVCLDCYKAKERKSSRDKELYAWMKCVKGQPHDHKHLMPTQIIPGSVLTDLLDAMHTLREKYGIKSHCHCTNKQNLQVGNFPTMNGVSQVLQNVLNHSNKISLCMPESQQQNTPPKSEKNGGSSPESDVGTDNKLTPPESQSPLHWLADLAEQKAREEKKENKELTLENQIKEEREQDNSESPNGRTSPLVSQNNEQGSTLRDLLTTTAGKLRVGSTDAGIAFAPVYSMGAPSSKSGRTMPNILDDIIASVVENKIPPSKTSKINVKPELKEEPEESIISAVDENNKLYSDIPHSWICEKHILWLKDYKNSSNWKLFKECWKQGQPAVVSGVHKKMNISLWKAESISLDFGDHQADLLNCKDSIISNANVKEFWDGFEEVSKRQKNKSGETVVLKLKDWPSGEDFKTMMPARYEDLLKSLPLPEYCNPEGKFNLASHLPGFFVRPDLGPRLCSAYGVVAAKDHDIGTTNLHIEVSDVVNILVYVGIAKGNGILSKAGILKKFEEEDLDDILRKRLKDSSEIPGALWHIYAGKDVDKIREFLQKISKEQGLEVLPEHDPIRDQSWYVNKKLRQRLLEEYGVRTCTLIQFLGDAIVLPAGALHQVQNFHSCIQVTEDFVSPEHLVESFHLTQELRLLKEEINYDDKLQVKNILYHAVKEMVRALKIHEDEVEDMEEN
Jmjd1c, endogenous in mouse liver (Q69ZK6, form named): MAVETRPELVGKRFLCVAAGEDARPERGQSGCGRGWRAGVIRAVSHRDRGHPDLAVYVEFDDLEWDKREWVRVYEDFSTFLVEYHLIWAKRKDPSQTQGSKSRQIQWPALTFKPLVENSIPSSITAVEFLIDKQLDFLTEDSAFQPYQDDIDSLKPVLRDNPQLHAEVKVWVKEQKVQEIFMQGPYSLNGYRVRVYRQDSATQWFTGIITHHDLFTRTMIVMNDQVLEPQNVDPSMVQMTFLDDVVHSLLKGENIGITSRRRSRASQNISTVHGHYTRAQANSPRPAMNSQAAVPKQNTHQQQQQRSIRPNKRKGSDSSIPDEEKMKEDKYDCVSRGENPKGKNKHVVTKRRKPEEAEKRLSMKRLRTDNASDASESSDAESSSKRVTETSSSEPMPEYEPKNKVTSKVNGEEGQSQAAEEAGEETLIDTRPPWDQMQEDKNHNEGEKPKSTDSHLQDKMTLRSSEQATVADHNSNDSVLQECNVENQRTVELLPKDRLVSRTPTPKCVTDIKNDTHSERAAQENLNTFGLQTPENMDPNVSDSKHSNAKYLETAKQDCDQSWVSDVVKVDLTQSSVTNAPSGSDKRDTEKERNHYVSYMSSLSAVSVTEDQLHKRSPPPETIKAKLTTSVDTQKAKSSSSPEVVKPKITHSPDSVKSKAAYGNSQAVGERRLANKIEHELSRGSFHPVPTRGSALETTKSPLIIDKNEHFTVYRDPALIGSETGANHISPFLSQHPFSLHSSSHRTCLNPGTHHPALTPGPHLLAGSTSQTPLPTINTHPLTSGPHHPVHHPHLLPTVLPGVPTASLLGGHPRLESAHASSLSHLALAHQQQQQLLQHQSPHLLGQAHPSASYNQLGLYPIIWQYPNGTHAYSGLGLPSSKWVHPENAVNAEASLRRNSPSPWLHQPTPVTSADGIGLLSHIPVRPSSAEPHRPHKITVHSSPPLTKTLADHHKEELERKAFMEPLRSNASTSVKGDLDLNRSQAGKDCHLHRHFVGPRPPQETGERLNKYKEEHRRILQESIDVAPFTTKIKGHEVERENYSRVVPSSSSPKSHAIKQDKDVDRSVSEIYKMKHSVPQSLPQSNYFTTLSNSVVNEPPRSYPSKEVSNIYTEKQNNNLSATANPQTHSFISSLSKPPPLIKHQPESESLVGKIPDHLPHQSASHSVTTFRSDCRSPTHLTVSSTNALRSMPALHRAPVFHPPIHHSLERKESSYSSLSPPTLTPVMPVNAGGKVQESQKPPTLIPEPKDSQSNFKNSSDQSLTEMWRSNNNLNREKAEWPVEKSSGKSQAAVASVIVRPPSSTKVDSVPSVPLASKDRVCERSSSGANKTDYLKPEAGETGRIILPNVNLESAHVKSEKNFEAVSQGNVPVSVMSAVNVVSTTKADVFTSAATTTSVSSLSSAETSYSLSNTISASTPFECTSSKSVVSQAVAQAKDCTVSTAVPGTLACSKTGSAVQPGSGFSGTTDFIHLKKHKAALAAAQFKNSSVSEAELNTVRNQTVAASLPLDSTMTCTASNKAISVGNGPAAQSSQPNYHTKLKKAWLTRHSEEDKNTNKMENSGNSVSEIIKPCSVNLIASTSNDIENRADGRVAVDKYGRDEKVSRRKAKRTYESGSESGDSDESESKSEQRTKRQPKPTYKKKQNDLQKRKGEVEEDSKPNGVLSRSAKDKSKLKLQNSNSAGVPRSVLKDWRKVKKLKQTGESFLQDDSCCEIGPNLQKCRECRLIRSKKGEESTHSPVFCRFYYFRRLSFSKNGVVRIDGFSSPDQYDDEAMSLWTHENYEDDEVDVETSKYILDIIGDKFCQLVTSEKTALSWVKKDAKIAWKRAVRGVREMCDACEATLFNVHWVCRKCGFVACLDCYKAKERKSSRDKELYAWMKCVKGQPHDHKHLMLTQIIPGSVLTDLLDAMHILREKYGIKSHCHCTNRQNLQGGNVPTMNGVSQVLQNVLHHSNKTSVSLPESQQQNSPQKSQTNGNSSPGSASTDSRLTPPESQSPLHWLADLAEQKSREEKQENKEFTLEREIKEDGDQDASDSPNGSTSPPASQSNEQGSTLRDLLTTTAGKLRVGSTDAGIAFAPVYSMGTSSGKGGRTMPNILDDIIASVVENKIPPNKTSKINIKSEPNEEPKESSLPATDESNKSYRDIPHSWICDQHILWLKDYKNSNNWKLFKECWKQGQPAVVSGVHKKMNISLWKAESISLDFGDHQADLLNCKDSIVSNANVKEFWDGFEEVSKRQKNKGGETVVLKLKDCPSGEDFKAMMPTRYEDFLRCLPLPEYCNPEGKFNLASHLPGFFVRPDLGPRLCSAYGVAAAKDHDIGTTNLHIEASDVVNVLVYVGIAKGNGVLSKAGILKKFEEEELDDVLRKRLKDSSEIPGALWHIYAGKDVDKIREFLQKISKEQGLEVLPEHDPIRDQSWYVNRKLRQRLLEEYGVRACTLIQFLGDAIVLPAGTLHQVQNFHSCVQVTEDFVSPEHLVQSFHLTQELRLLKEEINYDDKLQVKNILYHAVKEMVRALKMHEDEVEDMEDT

How the values were obtained:
[1] = molecular target: USF-1 overexpressed in 293FT cells (UniProt P22415); test: co-IP; co-IP of JMJD1C WT and T505 mutants with USF-1, immunoblot; cells and tags not told
GST-USF-1 = GST-USF-1 (UniProt P22415); test: pull-down; bacterially expressed GST-USF-1 fusion proteins on glutathione-agarose beads incubated with 35S-labeled in vitro transcribed and translated protein; SDS-PAGE, autoradiography; only the target purified
[2] = molecular target: Usf-1, endogenous in mouse liver (mouse (endogenous in liver)) (UniProt Q61069); test: co-IP; endogenous proteins, livers of fasted mice; IP of Jmjd1c and blot of Usf-1, and IP of Usf-1 and blot of Jmjd1c
[3] = molecular target: Usf-1, endogenous in mouse liver (mouse (endogenous in liver)) (UniProt Q61069); test: co-IP; endogenous proteins, livers of fed (refed) mice; IP of Jmjd1c and blot of Usf-1, and IP of Usf-1 and blot of Jmjd1c
HA-tagged USF-1 = HA-tagged USF-1 (UniProt P22415); test: co-IP; HEK293 cells co-transfected with Flag-JMJD1C and HA-USF-1; IP with HA antibody, immunoblot with Flag antibody

binding [1]: binds
Substance: JMJD1C T505D mutant (from UniProt Q15652 1-2540)

binding (GST-USF-1): binds
Substance: in vitro translated JMJD1C (from UniProt Q15652 1-2540)

binding [3]: binds
Substance: Jmjd1c, endogenous in mouse liver (from UniProt Q69ZK6 1-2531)
binding [2]: no binding (condition: livers of fasted mice)

binding [1]: no binding
Substance: JMJD1C T505A mutant (from UniProt Q15652 1-2540)

binding (HA-tagged USF-1): binds
Substance: Flag-tagged JMJD1C (from UniProt Q15652 1-2540)

binding [1]: binds
Substance: WT JMJD1C (from UniProt Q15652 1-2540)
